# The campaign covered roughly 150,000 compounds. About 540 (0.36%) showed an effect of 50% or more. The list shows a part of the results.
# Test system: Plasmodium falciparum
# Experiment: Primary screen in NF54 nanoGlo assay, in single point, at 2uM, 72h; a lower Z score goes with more inhibition
# Assay type: functional, Erythrocyte
# Conditions: timepoint 72 hour
SMILES,% Inhibition,Z score
CC1=CCN(C(=O)c2ccc3c(c2)C[C@H](C)O3)CC1,-5%,0.82
O=C1NCCC[C@@H]1Nc1nc(-c2ccccc2)nc2ccccc12,-3%,0.54
CN1CCC[C@H](CN(C)Cc2cccc(-c3cccnc3)c2)C1,-5%,0.46
CC(C)Oc1ccc(-c2nc(C(=O)NC3CCOC(C4CC4)C3)cs2)cc1 (stereo unspecified),-9%,1.05
CCCc1nnc(N[C@@H]2C[C@@H](C(=O)NC)N(Cc3cccc(F)c3)C2)s1,-8%,1.64
COc1ccc(-c2nc(NC3CC3)nc3nn(-c4ccc(Cl)c(Cl)c4)c(N)c23)cc1OC,-4%,0.66
Cc1cc(CN2CCN(c3nc4ccccc4nc3C)CC2)on1,-9%,1.1
O=c1[nH]c2ccccc2c(=O)n1C[C@H]1COc2ccccc2O1,7%,-0.92
COc1ccc(CC(=O)Nc2cc(C)n(-c3cccc(Cl)c3)n2)cc1,80%,-8.55
Cc1cc(C(=O)NC(C2CCNCC2)[C@H]2C[C@@H](O)C2)ccc1Cl (stereo partly specified),-14%,2.09
CCOC(=O)NCCn1cc(-c2ccncc2)cn1,-10%,1.59
CCn1cc(CNc2cccc3c2CCN(c2ccc(C)nn2)C3)nn1,-8%,1.43
COCC(=O)NC[C@H]1Cn2c(-c3ccccc3)cnc2CO1,34%,-3.8
COc1ccc(Nc2ccc(-c3nc(-c4ccc(C)cc4)no3)nn2)c(OC)c1,-14%,2.03
CC(C)Cn1cccc(C(=O)NCC(=O)N2CCCO2)c1=O,5%,-0.79
CC1(C)O[C@@H]2C[C@@](OCc3cccc(F)c3)(C(=O)NC3CC3)CC(OCc3cccc(Cl)c3)[C@@H]2O1 (stereo partly specified),-9%,1.69
Cc1ccn2c(F)c(C(=O)NCCOc3nonc3C)nc2c1,-2%,0.3
CC[C@H](NC(=O)N1CCC(N2CCOCC2)CC1)c1ccnn1C,-6%,1.06
Cc1c(Cl)ccc2c1NC(=O)[C@]21N2CCC[C@H]2[C@@H](C(=O)c2ccc(Cl)cc2Cl)[C@]12C(=O)Nc1ccccc12,1%,-0.07
COCCNC(N)=NCCC1=CCCCCC1,-2%,0.31
O=C(c1cn2cc(-c3ccc(C(F)(F)F)cc3)ccc2n1)N1CCCC1,-11%,1.29

SMILES,% Inhibition,Z score
CC(C)c1cc(CNC(=O)N2CCC[C@@H]2C(N)=O)no1,-11%,1.53
Cc1cc(NC(=O)N[C@H](c2ccccc2)C2(CO)CCC2)n(C)n1,-3%,0.21
COC(=O)c1cncc(NC(=O)N2CCC[C@@H]2c2csc(C)n2)c1,9%,-1.26
CCCN(Cc1nccn1C)C(=O)NC[C@@H](c1cccc(C)c1)N(C)C,-2%,0.29
CCCC1C2C(=O)N(c3cccc(C(F)(F)F)c3)C(=O)C2ON1c1ccccc1 (stereo unspecified),-14%,1.49
CC[C@H](NC(=O)c1cn(C)c(=O)[nH]c1=O)c1nccs1,3%,-0.51
N#Cc1ccc(COCC2CCN(CC(=O)NCc3ccc(F)cc3)CC2)cc1,-20%,2.26
Cc1ccc(CN[C@H]2CCOC2)c2cccnc12,-2%,0.4
C[C@H](NC(=O)C1CCOCC1)C(=O)Nc1ccc(OC2CCCC2)c(Cl)c1,9%,-1.17
C[C@@H](C(=O)N1CCC(C)(C#N)CC1)N1CCCCCC1,-10%,1.02
COCCN1C[C@@H](Cc2ccc(O)c(Cl)c2)CC1=O,-23%,2.32
O=C(CN1C(=O)COc2ccccc21)OCc1coc(-c2ccccc2Cl)n1,-7%,0.77
CC(C)N1C[C@H](Oc2ccccc2)[C@@H]1C1CCN(C(=O)COCc2ccccc2)CC1,-2%,0.2
COCc1ccc(C(=O)N[C@H]2CCCOC2)s1,3%,-0.47
CCc1cc(NC(=O)NCC(F)(F)F)[nH]n1,-9%,1.32
O=C(Cn1cncc(-c2ccccc2)c1=O)NCc1ccccc1,-2%,0.16
C1CCC(NC(=Nc2nonc2N=C(NC2CCCCC2)NC2CCCCC2)NC2CCCCC2)CC1,25%,-2.88
C=CCN1CCC(NC(=O)N(Cc2ccccc2F)C2CCC2)CC1,-2%,0.22
N#Cc1cccc(C(=O)N2CCNC(=O)[C@@H]2c2c(F)cccc2Cl)c1,-8%,0.79
COCCN1CC2(CCN(C(=O)c3ccoc3)CC2)[C@H]1c1ccncc1,-14%,2.33
CCCCn1c(N)c(N(C(=O)COc2ccc(C)cc2Br)C2CCCC2)c(=O)[nH]c1=O,-11%,1.23

SMILES,% Inhibition,Z score
O=C(Cc1ccc(Cl)cc1)Nc1cnc(-n2ccnc2)nc1,4%,-0.61
Cc1nnc(-c2ccccc2-c2ccnc3c2ccn3C)o1,-18%,2.82
COC(=O)[C@@H]1CCCN1C(=O)OC(C)(C)C,-6%,0.94
CCNC(=O)CNc1ncc(C)c(C)n1,29%,-3.87
Cc1cc(OCC(=O)NCc2ccccc2F)nnc1C,0%,0.01
CCc1c(C)nc(C)nc1N1CC[C@H](NC(=O)c2cc(C)on2)[C@@H](O)C1,8%,-1.41
CCOc1cc(CNC(=O)[C@@H]2Cc3ccccc3N2C(=O)CC)cc(OCC)c1OCC,-4%,0.54
O=C(Nc1nnc2ccccn12)c1ccc2ccccc2n1,-15%,1.47
CC(C)[C@@H]1CN(C(=O)c2c[nH]c(=O)c3ccccc23)CCCO1,-5%,0.52
CN(Cc1cnc(N2CCCC2)s1)C[C@H]1Cc2ccccc2O1,-4%,0.84
Cc1cccc(CNCCCc2ccccc2F)n1,-7%,1.2
O=C(Nc1cccnc1)c1cccc(S(=O)(=O)NC[C@@H]2C[C@H](F)CN2)c1,-8%,1.08
Cn1c(=O)n(C)c2cc(N3CCCC3)c(NC(=O)NCc3ccco3)cc21,-11%,2.18
Cc1ccc(S(=O)(=O)Nc2cc(C(=O)O)ccc2N2CCC[C@H](CN3CCCC3)C2)c(C)c1,-6%,0.6
Cc1ccc(N2CCCC2=O)c(C(=O)N[C@H]2CCCc3c(O)cccc32)c1,1%,-0.12
CCc1cc(C(=O)NC[C@](C)(O)CN2CCOCC2)sc1C,-3%,0.47
Cc1cc(CC(=O)N2CCC(c3c(C)[nH]c4ccccc34)CC2)no1,-1%,0.14
O=C1OCC2(CCN(C(=O)NCCc3nc(-c4cccnc4)n[nH]3)CC2)O1,-4%,0.63
C[C@H](NC(=O)C1(C(F)(F)F)CCCC1)c1nccc(N)n1,-3%,0.6
COC(=O)c1cccn1C1CCN(C(=O)c2cc(C#N)cn2C)CC1,-7%,1.01
O=C(C[C@H]1COCCN1C(=O)c1n[nH]c2c1CCC2)c1ccco1,-10%,0.86

SMILES,% Inhibition,Z score
CCCCN(CC(=O)N(Cc1ccco1)C[C@H]1CCCO1)C(=O)CC(C)(C)C,0%,-0.02
O=C(Nc1ccc(NC(=O)c2ccco2)cc1)c1cn(C[C@H](O)c2ccccc2F)nn1,-15%,2.73
CC(=O)OCCc1c(C)nc2c(C#N)cnn2c1N1CCCC1,0%,-0.04
O=C1CCCC[C@@H](C(=O)N(CCC(F)(F)F)CC2CC2)N1,-30%,3.57
C[C@@H](C1CC1)N(C)C(=O)Cn1cc(Br)c(=O)[nH]c1=O,-3%,0.39
c1nc(NCCc2ccc3c(c2)OCO3)c2ccsc2n1,-14%,1.14
Cc1cc(C)nc(N2CCN(C(=O)CC[C@H]3CCCN(C)C3)CC2)n1,-8%,1.33
COc1cccc(NC(=O)c2nc(N)nc(N(C)C)n2)c1,-20%,1.86
CC(Nc1ncccc1C#N)C(C)n1cccn1 (stereo unspecified),-17%,2.17
CC(C)n1cnc(C(=O)NC[C@H]2CCC[C@@H]2O)c1,-9%,1.13
CC1(C)CC(=O)C2(Cc3ccccc3N3CCC(c4ccccc4)CC32)C(=O)C1 (stereo unspecified),-17%,2.46
CCc1cnc(NC(=O)CC(O)CC(=O)Nc2ncc(CC)s2)s1,1%,-0.13
CCC(C(=O)Nc1nccs1)N1C[C@H]2C[C@H](O)[C@H](O)C[C@H]2C1 (stereo partly specified),-11%,1.46
COc1ccc(CN(C)[C@@H]2CCCC[C@@H]2O)c(F)c1,0%,-0.04
CCN(CC)S(=O)(=O)c1ccc(N2CCOCC2)c(NCC(=O)Nc2ccc3c(c2)CCC3)c1,-42%,4.87
NC(=O)c1nccnc1C(=O)N[C@H]1CCCc2ccccc21,-8%,1.21
Cc1cc(NC(=O)c2ccoc2)cc2sc(N)nc12,-2%,0.38
O=S(=O)(CCn1ccnc1-c1cccs1)c1ccccc1,-16%,1.39
O=C(Nc1ccc(O)cc1)[C@H]1C[C@@H]1C(F)F,-3%,0.41
CC(C)C1CN(C(=O)c2c[nH]nc2C2CCOC2)c2ccccc21 (stereo unspecified),-7%,0.84
